Test results: the supplement of paper PMC11417369
± gives the standard deviation of the averaged measurements. Some of the results follow.

tested on: PfAP2-EXP AP2 domain (GST-tagged); assay: gcPBM binding intensity (ln(normalized median fluorescence intensity)); higher = stronger DNA binding
Method in brief: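 Binding intensity is the highest Masliner-normalised natural-log median intensity over replicate spots in either probe orientation. To obtain it, GST-tagged P. falciparum DNA-binding domains made in E. coli were incubated for 1 h on an Agilent 4 × 180k array of primer-extended double-stranded 36-bp intergenic genomic probes plus negative controls. Detection used Alexa488 anti-GST antibody with scanning at 488 nm.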

Sequence	gcPBM binding intensity (ln)
ATCCAAAAGAAAAATAGTACAGATATGAACAATATG [XGTACX_site6944]	8.76 ± 0.42
ACAATATATTTTTGAGCATGCGCAAAAGAGAATGCA [TGCATGCA_site566]	9.24 ± 0.49
TCAAAAATTTATATAGTGCAATATATATATAATGTA	8.31 ± 0.42
TGTGGCCCTGCGAGGTGGTCATCATGAATACGAAAA [XGTACX_site1526]	8.55 ± 0.34
TGAATTAACAAATAGACACACATATATATATATATA [CACACA_site3195]	10 ± 0.4
TTAAAAAATATATGCGTGCACTAATATTTCATATGC	9.02 ± 0.48
ACCATTTGTACTTACGCACACATAAAATATATATAT [CACACA_site1545]	9.2 ± 0.071
TACTATTTTTATAATACACACATATATTTGTGATAT [CACACA_site1775]	8.52 ± 0.38
TCATACATTTTCCTTGCACACATTTATAATTAATGT [CACACA_site614]	8.97 ± 0.4
TAATTTATTGTACGTGCATGCTATTTTTTATTTTTA [TGCATGCA_site1059]	9.46 ± 0.34
TTGTAATATATAAAAGTGCATATATGGTTCCATATA [GTGCAC_site9544]	8.59 ± 0.35
AACAAAAAAACAAACACACACACACCCATATATATA [CACACA_site3652]	8.78 ± 0.26
ATATGTGAATAAAAATGTACGTGTTCTTTTTTTTTT [XGTACX_site320]	8.43 ± 0.47
ACTATAAATATATACACATGCGCACACACAAGTGGG [TGCATGCA_site432]	8.77 ± 0.39
TACCTATAAAAGTACACACACACACGGATATAAATA [CACACA_site6569]	8.9 ± 0.59
ATTGATCTTTATTGTTGTACATTAAACGTTAATTTT [XGTACX_site1788]	8.77 ± 0.49
TAACAAAATGTAAATAAACACACATATATATATATA [CACACA_site8352]	10 ± 0.4
TATTATATAATTTTAACACACAAGAATATAAACTTT [CACACA_site1363]	8.31 ± 0.38
AAAAAGAAAAAACTTACACACATATATACCCCCATG [CACACA_site4463]	9.71 ± 0.38
TAATTTAAATGATGTAGTACATATAAATATATCTAA [XGTACX_site262]	8.07 ± 0.11
TGAAGGAATACAGCTCGTACATGTGTAAAGAGATAA [XGTACX_site500]	8.92 ± 0.47
AACATTCTATGTTGCACACAAAGAGAAAAATTTATT [CACACA_site3995]	8.59 ± 0.58
AATAAAAAAATTAAAATTAAAAAATTAAAACTTAAA [CACACA_negctrl_site987]	7.88 ± 0.41

Sequence	gcPBM binding intensity (ln)
ATGGAAATTTTATCATGTACATATACCGTTGAATAA [XGTACX_site5420]	8.6 ± 0.35
ACATATAAGTTATATACACACAATAATATGTAAATA [CACACA_site6766]	8.35 ± 0.49
ATATTTTTTATAAAATGTACTTATTATTAGAATATA [XGTACX_site2460]	8.28 ± 0.23
TACAAAATATGGTAATAAAGTAGTTACATGAATTGG [XGTACX_negctrl_site522]	8.55 ± 0.43
AAATAGTCTTCTCTTGCATGTAACAAATATATATAT [TGCATGCA_site428]	9.38 ± 0.099
TAGTAAGAATTACTGTGTACTAAAATATTAAAAAGT [XGTACX_site2578]	8.69 ± 0.26
AATAAAAACAAACAAAAAAACAAATAAATAAATAAA [CACACA_negctrl_site483]	8.64 ± 0.39
GTTATAGAAGCATTCACACACACACGGACATACACA [CACACA_site6801]	8.86 ± 0.43
TTTTTTTATAAAAATGAACACACACCGATATATATA [CACACA_site9161]	8.98 ± 0.34
TATTATAATATATTTGTGCACATAATACCTCCGCTA [GTGCAC_site9570]	9.03 ± 0.11
AATATATACATATGTATGCACTTTTTAATTATTTTT	8.62 ± 0.27
ATATATATATAAATATAAATATATATATATATATAT [CACACA_negctrl_site1685]	10 ± 0.41
ATAAATTATATTCAAGTGCATGTAACTTATTATTAT	8.83 ± 0.11
AATAATTAAATATATTTATAACAGGAAAATATTTAT [XGTACX_negctrl_site175]	8.49 ± 0.41
GTTATAGAAGCATTCACACACACACCGACATACACA [CACACA_site4914]	8.69 ± 0.49
ACAAAGAACTATAATACACACAAGAATATATTGGAT [CACACA_site7771]	8.78 ± 0.45
AAAAAAATCACATAATATACTTTATTTTATTTTGTA [GTGCAC_negctrl_site562]	7.89 ± 0.33
TATATATAGAAACACACACACACATATATATATATT [CACACA_site2539]	8.73 ± 0.67
TTATAAGATTTATGTACACACATATACACCCCTCTA [CACACA_site4562]	8.85 ± 0.42
GTAAGAAACGGACACACACACATATATATATATATA [CACACA_site4593]	10.2 ± 0.23
AATATATTGCACCATTGGACCTGAATAATTCTTCCA [CACACA_negctrl_site1071]	9.37 ± 0.47
AAAAAAAAAAATTCCAGTACACACAATAATACTAAA [XGTACX_site5930]	8.54 ± 0.37
TAAATAATCATAGTTCTACACACCTATATTGCAAAA [CACACA_site8190]	8.39 ± 0.4

Sequence	gcPBM binding intensity (ln)
ATATATATAATATGATGTACTATTTTGATAAAAAAT [XGTACX_site3975]	8.41 ± 0.13
ATAATAAAACTCAAAGTGCATTAGAATAATTGTAAA	8.61 ± 0.25
ATTCATAAATATATTTGTACATATTATATATAAATA [XGTACX_site1907]	8.55 ± 0.4
AAGAACTCATTAATAATGTAATATTTTATAATTTAG [CACACA_negctrl_site321]	7.93 ± 0.46
TACAATTGTAAAGGCGCACACATATATATATATATA [CACACA_site1392]	10.3 ± 0.59
GATATTATTGCATATTTACACACGTACTAATTTAAA [CACACA_site8231]	8.92 ± 0.33
TTTTTATAATAAAAAAATATAACTATATTAAGCCAC [CACACA_negctrl_site555]	8.54 ± 0.32
ACAATAAATATGTGGTTGCACTTATAATATATTTAT	8.6 ± 0.38
TATACATATTTCTATTGTACATAAACTAAATCTTCA [XGTACX_site28]	8.27 ± 0.49
TAATATATAACGTGCACACACACATTTACGTATGAA [CACACA_site1832]	9.21 ± 0.26
AGCACCCACCAACACACACACACACCCACCCACCCA [CACACA_site8011]	8.9 ± 0.22
CACAGTGATATAAAAACACACATGAATTAAAATTTC [CACACA_site4999]	8.2 ± 0.5
TATTTTTATCAATTCACACATAAATATATTTATATG [CACACA_site5547]	8.38 ± 0.4
GTTAATTATTAAATTTGTACTCATATATATTATATA [XGTACX_site6862]	8.71 ± 0.38
TCCCTTAATTTTGTGTGTACATATAATATATTTTTA [XGTACX_site2789]	8.87 ± 0.23
CATACATACAGACACACACACATATTTATATTTATA [CACACA_site6172]	8.57 ± 0.5
GGAATAGTGATATATACACACAAATACATATTTATA [CACACA_site6183]	8.71 ± 0.49
AATTAATAAGAAAGGTGTACAGAAAAAAAAAAATAT [XGTACX_site2106]	9.06 ± 0.49
AATTTTGATATATATTGTACGCATTTTTAAATGCCA [XGTACX_site7694]	8.7 ± 0.38
AAAAGAAATGACAAATTGGATAGATAATAGGGGGTA [GTGCAC_negctrl_site262]	9.28 ± 0.44
TTTAATAAAATTCTAGTGCAAAAAGGAAAAAACAAA [GTGCAC_site9642]	9.07 ± 0.45
AATATATAGGAAAAAGTGCAATAAATGAACAAAATA	9.06 ± 0.26
AAAAAAAAAAAAAATACACACATATATAAATAAATA [CACACA_site6459]	8.31 ± 0.45

Sequence	gcPBM binding intensity (ln)
TTATTTACTTATTGCACACATATAAAATATATTTAT [CACACA_site3101]	9.065 ± 0.021
TTCTTAATTTAAAATTGTACTTAAGTAATACTTATG [XGTACX_site3928]	8.57 ± 0.34
GAAGTTTTTTAAAGATGTACTTTTTAAAAATAATGT [XGTACX_site1975]	8.3 ± 0.4
CTATATATAAAATATTGTACTTATTTTTATTACATC [XGTACX_site3963]	8.48 ± 0.39
TATACATATGTATGCACACATACATACCCATATAAT [CACACA_site5842]	8.57 ± 0.23
TATTTAAAATATTAAATTTGTAAAGTTCGAGGGAAG [GTGCAC_negctrl_site337]	8.52 ± 0.48
TTTTCTCAATTTTGGTGTACTTTTTTCTTAACACAT [XGTACX_site8918]	9.04 ± 0.42
GAAAAAAAAATATCTTGTACTTACATAACTATTGGT [XGTACX_site5326]	8.28 ± 0.4
AAAGGTTTATCTGATACACACATAAGTGATCAGGTT [CACACA_site6233]	8.27 ± 0.32
TAAATTAAAAAACATAAACTATTGGAAACGCATTGA [CACACA_negctrl_site935]	8.62 ± 0.39
ACACAATAAACATTATGTACATATAATGTTCTGTGT [XGTACX_site3381]	8.3 ± 0.22
AATGATAATCTATTATGTACACATATATTCTTATGT [XGTACX_site4148]	8.34 ± 0.33
ATTTATGGAAAAAGAACACACAATCAAACAAAAATA [CACACA_site3707]	8.88 ± 0.61
TTTTTTTTTTTTTGGTGTACCATAGGTAAAATGATT [XGTACX_site8020]	8.39 ± 0.54
ATATAAATGAATATATGTACATATATATATATATAT [XGTACX_site6361]	10.1 ± 0.3
TGACCTGTTCAGGTAACACACATATAAACCCATACA [CACACA_site31]	8.67 ± 0.44
ATGCTATAGGATCTTACACACATTTTTGTAAAAAAA [CACACA_site1868]	8.39 ± 0.39
TATATATATATATATGTGCACTGAAAGAATTATACA [GTGCAC_site9586]	10.1 ± 0.14
TTTTTCTAATTATGCACACATATCAAAATATTCAAT [CACACA_site2749]	8.62 ± 0.028
GCTCAATTTTTGGGTACACACAAATGTATAAGAATA [CACACA_site7178]	8.61 ± 0.22
TATTTATTTTATATATGTACATAATATATTCTTATA [XGTACX_site1619]	8.62 ± 0.3
